According to PubChem BioAssay AID1460 (National Center for Advancing Translational Sciences (NCATS), 2008):
In all, about 270,000 compounds went through this assay and about 5,800 (2.1%) were called active. The shares of active, inactive and inconclusive entries below differ from those in the screen. Calls follow the shape of the dose curve; as a rule, active = well fitted inhibition curve with a large enough effect; inconclusive = small, poorly fitted or top-dose-only effect; inactive = flat fitted curve, though single readings scatter. Potencies of inconclusive entries are doubtful fits and often do not repeat.

Target: Microtubule-associated protein tau (Homo sapiens) (UniProt P10636)
Experiment: qHTS for Inhibitors of Tau Fibril Formation, Thioflavin T Binding; also: nearly all actives have a fitted effect of over 55% in size
Details: recombinant tau K18 P301L (four-repeat tau fragment), heparin-induced fibrillization, ThT fluorescence; series mostly up to 57.4 µM
Summary of the method: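 Heparin-induced (20 uM) aggregation of recombinant human K18 P301L tau, 15 uM unlabeled with 0.24 uM labeled, pH 7 acetate buffer, 6 hr at 37 C with compound. Fibrils quantified by 30 uM ThT fluorescence after 1 hr ambient incubation.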
Potency is read from the fitted curve at half-maximal effect; tags tell the direction and shape of the fitted curve.

Sequence of UniProt P10636 (P10636 whole entry, looked up): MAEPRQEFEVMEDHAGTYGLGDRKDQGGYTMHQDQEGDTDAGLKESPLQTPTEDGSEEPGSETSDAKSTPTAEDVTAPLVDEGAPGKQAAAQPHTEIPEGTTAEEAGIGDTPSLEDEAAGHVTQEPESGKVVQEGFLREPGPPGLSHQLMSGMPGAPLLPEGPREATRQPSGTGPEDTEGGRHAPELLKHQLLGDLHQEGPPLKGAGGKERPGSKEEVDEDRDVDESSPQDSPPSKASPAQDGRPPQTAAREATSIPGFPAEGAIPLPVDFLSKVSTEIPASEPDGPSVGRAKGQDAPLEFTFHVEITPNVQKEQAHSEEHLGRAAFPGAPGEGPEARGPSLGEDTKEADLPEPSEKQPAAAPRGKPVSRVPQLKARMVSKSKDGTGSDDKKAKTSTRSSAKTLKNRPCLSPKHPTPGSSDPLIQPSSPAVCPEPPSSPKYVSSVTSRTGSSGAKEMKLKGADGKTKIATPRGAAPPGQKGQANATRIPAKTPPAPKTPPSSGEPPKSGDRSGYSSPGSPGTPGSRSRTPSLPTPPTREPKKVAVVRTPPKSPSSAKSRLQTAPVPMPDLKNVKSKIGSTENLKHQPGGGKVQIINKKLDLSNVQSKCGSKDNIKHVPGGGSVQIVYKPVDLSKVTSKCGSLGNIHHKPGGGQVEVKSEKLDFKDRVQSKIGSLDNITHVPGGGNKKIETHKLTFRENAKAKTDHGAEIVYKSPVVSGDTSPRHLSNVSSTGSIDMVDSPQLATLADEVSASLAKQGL

SMILES	Potency
Cc1ccc(NC(=O)c2nnn(-c3cc(C)cc(C)c3)c2N)cc1	inconclusive: 15.8 µM [inhibitor, partial curve]
CC(Sc1ccc2c(c1)OCCO2)C(=O)Nc1ncc(Cl)cc1Cl (stereo unspecified)	inconclusive: 44.7 µM [inhibitor, single point]
Cc1ccc(-c2cc3ncc(C(=O)c4cc([N+](=O)[O-])ccc4O)cn3n2)cc1	active: 10 µM
Cc1ccc(CC2CC(=O)N(Cc3ccco3)C2=O)cc1 (stereo unspecified)	inactive
Cc1ccc(NC(=O)Nc2cccnc2)cc1NC(=O)Nc1cccnc1	inconclusive: 14.1 µM [inhibitor, partial curve, poor fit]
Nc1ccccc1Nc1cc(-c2cccc(Cl)c2)nn1-c1ccccc1	inconclusive: 15.8 µM [inhibitor, partial curve]
O=C(COc1ccccc1F)Nc1ccc(C(=O)OCc2cc(=O)n3nc(C4CC4)sc3n2)cc1	inactive
Clc1ccccc1C1=CC(c2ccco2)n2ncnc2N1 (stereo unspecified)	inactive
CN(Cc1ccccc1)c1nc(-c2ccc(F)cc2)cc(C(F)(F)F)n1	inconclusive: 11.2 µM [inhibitor, single point]
O=C(O)c1ccc(COc2c(F)c(F)cc(F)c2F)o1	inconclusive: 35.5 µM [inhibitor, single point]
COc1ccccc1CNC(=O)C1CCN(Cc2nc(-c3ccc(OC)c(OC)c3)oc2C)CC1	inactive
CN(N=Nc1ccc([N+](=O)[O-])cc1)c1ccccc1	inconclusive: 3.55 µM [inhibitor, partial curve]
COc1ccccc1CNC(=O)CC(NS(=O)(=O)c1ccc(C)cc1)c1ccco1 (stereo unspecified)	inconclusive: 39.8 µM [inhibitor, partial curve]
Cc1ccc2oc(=O)c3c4cc(O)c(O)c(C)c4oc3c2c1	inconclusive: 5.01 µM [inhibitor, partial curve, poor fit]
COc1cc(/C=C2\C(=O)ON=C2c2ccccc2)cc(OC)c1OC	inconclusive: 7.94 µM [inhibitor, partial curve]
Cc1ccccc1CNC(=O)c1ccc(-n2c(C)cc3c2CCCC3)cc1	inconclusive: 22.4 µM [inhibitor, single point]
Cc1nn(-c2ccc3nncn3n2)c(C)c1CCC(=O)Nc1ccc(OC(F)(F)F)cc1	inconclusive: 28.2 µM [inhibitor, single point]
O=C(Oc1ccc(-c2cn3c(n2)SCC3)cc1)c1ccccc1	inconclusive: 1.78 µM [inhibitor, full curve]
COc1cc(NC(=O)c2noc3c2CCc2ccccc2-3)cc(OC)c1OC	inconclusive: 7.08 µM [inhibitor, partial curve]
C=COCCNC(=S)Nc1cccc(Cl)c1	inactive
c1ccc(-n2cnc3cc(NCc4ccco4)ccc32)cc1	inconclusive: 15.8 µM [inhibitor, partial curve]
O=C(Nc1nc2ccc(F)cc2s1)C1CCN(S(=O)(=O)c2cc([N+](=O)[O-])ccc2Cl)CC1	inconclusive: 12.6 µM [inhibitor, partial curve]

SMILES	Potency
COc1ccccc1CNC(=O)CSC1=NCCS1	inconclusive: 17.8 µM [inhibitor, partial curve, poor fit]
COc1cccc(C(C#N)N2N=C(C)CC2(C)C)c1O (stereo unspecified)	inconclusive: 25.1 µM [inhibitor, single point]
CCN(CC)S(=O)(=O)c1ccc(N2CCOCC2)c(NC(=O)CNCCc2ccccc2)c1	inactive
Cc1cc2c(ncn2Cc2ccccc2)c([N+](=O)[O-])c1C	inactive
CCCCCc1ccc(OCCC[n+]2ccccc2)c(CCCCC)c1	inconclusive: 28.2 µM [inhibitor, partial curve]
C[n+]1cccc(C2C(C#N)=C(N)Oc3c2ccc2ccccc32)c1 (stereo unspecified)	inconclusive: 14.1 µM [inhibitor, partial curve]
CC(=O)Oc1ccc2c(c1)C(=O)c1ccccc1CO2	inconclusive: 28.2 µM [inhibitor, partial curve, poor fit]
CCOc1cc(CNc2ccc(O)cc2)cc(Br)c1OCc1ccccc1	inconclusive: 17.8 µM [inhibitor, partial curve]
COCCNC(=O)c1ccc(Cn2c(SCC(=O)NC(C)C)nc3ccccc3c2=O)cc1	inactive
CCCN(C(=O)c1cc2c(Cl)nc3ccccc3c2s1)c1cccc(C)c1	inconclusive: 31.6 µM [inhibitor, single point]
Cc1ccc(-n2c(CCC(=O)O)ccc2-c2cccs2)cc1	inconclusive: 25.1 µM [inhibitor, partial curve]
O=C(c1ccc(F)cc1)[C@@H]1[C@@H](C(=O)c2ccccc2)[C@@]2(C(=O)Nc3ccccc32)[C@H]2c3ccccc3C=CN12	inconclusive: 22.4 µM [inhibitor, partial curve]
O=C1c2ccccc2C(=O)c2c1cccc2-n1nnc2ccccc21	inactive
O=C(Nc1nnc(S(=O)(=O)N2CCCc3ccccc32)s1)c1ccccc1Br	inconclusive: 14.1 µM [inhibitor, partial curve]
Cc1cc(C)cc(-n2nnc(C(=O)NCc3ccc4c(c3)OCO4)c2N)c1	inconclusive: 39.8 µM [inhibitor, single point]
NC(=O)c1cc2cc(Cl)ccc2o/c1=N/NC(=O)c1cccs1	inconclusive: 14.1 µM [inhibitor, partial curve]
O=C(O)CCCCCn1c(SCC(=O)c2ccc(O)c(O)c2)nc2ccsc2c1=O	inconclusive: 14.1 µM [inhibitor, partial curve, poor fit]
COc1ccc(Cn2nnnc2C(c2ccncc2)N2CCOCC2)cc1 (stereo unspecified)	inactive
CCOc1ccccc1-c1nnc(SCc2ccc(Cl)cc2)o1	inconclusive: 8.91 µM [inhibitor, partial curve, poor fit]
COc1ccc(OC)c(NC(=O)c2csnn2)c1	inconclusive: 28.2 µM [inhibitor, partial curve]
O=C(NC1=C(Nc2ccc(Cl)cc2)C(=O)c2ccccc2C1=O)c1ccccc1	active: 17.8 µM
O=C(COC(=O)c1cn(-c2ccccc2)nc1-c1ccccc1)Nc1ncc(Cl)cc1Cl	inactive

SMILES	Potency
CCOC(=O)N/N=C/c1ccc(N(CC)CC)cc1O	inconclusive: 25.1 µM [inhibitor, partial curve]
O=[N+]([O-])c1ccc2nc(-c3ccccn3)[nH]c2c1	inconclusive: 11.2 µM [inhibitor, partial curve]
O=C(CSCc1ccccc1)N/N=C/c1ccccc1OCc1ccccc1	inconclusive: 39.8 µM [inhibitor, single point]
O=C(O)CCc1ccc(-c2cccs2)n1-c1ccc(C(=O)O)cc1	inconclusive: 25.1 µM [inhibitor, single point]
CC(=O)C1=C(O)C(=O)N(Cc2ccco2)C1c1ccc2c(c1)OCO2 (stereo unspecified)	inconclusive: 44.7 µM [inhibitor, partial curve]
O=C1c2ccccc2C(=O)C1c1ccccn1	inconclusive: 17.8 µM [inhibitor, partial curve]
CCCCSc1nnc(-c2ccc(NC(=O)CC)cc2)n1C	inconclusive: 14.1 µM [inhibitor, partial curve]
Cc1ccc(NC(=O)c2cc(C)n(-c3ccccc3)c2C)cc1	inconclusive: 17.8 µM [inhibitor, single point]
Nn1c(SCc2cn3cc(Cl)ccc3n2)nnc1-c1ccncc1	inconclusive: 28.2 µM [inhibitor, partial curve]
COc1ccc(/C=C/C(=O)c2ccc(C)s2)cc1	inconclusive: 17.8 µM [inhibitor, partial curve, poor fit]
CCOc1cc(C2c3c(oc4ccccc4c3=O)C(=O)N2Cc2ccc3c(c2)OCO3)ccc1O (stereo unspecified)	inactive
CC(=O)Nc1ccc(C2=NNC(=Nc3ccc(S(=O)(=O)N4CCOCC4)cc3)SC2)cc1	active: 4.47 µM
CCn1c(=O)cc(OCC(=O)N2CCN(c3cccc(C(F)(F)F)c3)CC2)c2ccccc21	inconclusive: 22.4 µM [inhibitor, partial curve]
CC(C)Oc1ccc(C(=O)N/N=C/c2ccc(-c3ccc(S(=O)(=O)Nc4ncccn4)cc3)o2)cc1	inconclusive: 28.2 µM [inhibitor, partial curve]
Cc1cc(C)c(NC(=O)Cn2c(=O)n(CCCCC(=O)NCc3ccccc3Cl)c(=O)c3ccccc32)c(C)c1	inactive
CCc1cc(C(=O)COc2ccc(F)cc2)c(O)cc1O	inconclusive: 17.8 µM [inhibitor, single point]
O=C(NC(=S)Nc1cccc([N+](=O)[O-])c1)c1ccccc1	inconclusive: 1.58 µM [inhibitor, full curve]
Cc1ccc(C2=N/C(=C\c3cccs3)C(=O)N2Nc2ccccc2)cc1	inconclusive: 12.6 µM [inhibitor, partial curve]
CN(C)c1ccc(NC(=O)COC(=O)c2cc(Cl)ccc2[N+](=O)[O-])cc1	inconclusive: 14.1 µM [inhibitor, partial curve]
CC(C)OCCCNC(=O)CCCn1c(SCC(=O)c2ccc(Br)cc2)nc2c(sc3ccccc32)c1=O	inactive
Cc1ccc(C)c(N=Cc2cc3c(cc2[N+](=O)[O-])OCO3)c1	inconclusive: 22.4 µM [inhibitor, partial curve, poor fit]
O=C(NC1CC1)c1ccc(-c2nc3ccccc3s2)s1	inconclusive: 0.891 µM [inhibitor, full curve, poor fit]
